# Assay results: ChEMBL document CHEMBL4888484, “Replenishing the malaria drug discovery pipeline: Screening and hit evaluation of the MMV Hit Generation Library 1 (HGL1) against asexual blood stage Plasmodium falciparum ,using a nano luciferase reporter read-out” (2022)
# About 540 (0.36%) of roughly 150,000 compounds showed an effect of 50% or more. The list shows a part of the results.
# Tested on: Plasmodium falciparum
# Assay: Primary screen in NF54 nanoGlo assay, in single point, at 2uM, 72h; a lower Z score goes with more inhibition
# Assay type: functional, Erythrocyte
# Details: timepoint 72 hour
SMILES,% Inhibition [%],Z score
O[C@@H](CN1CCCCCC1)c1ccccc1,24,-2.71
O=C(Cn1ncc2c1C[C@@H](O)CC2)N1CCN(c2ccccc2F)CC1,9,-1.22
CCC(=O)N1CCc2cc(-c3ccc(C(=O)N4CCN(Cc5ccccc5)CC4)cc3)ccc21,0,-0.03
CN(C)CC1CCc2ccccc2N1C(=O)C1CC2CCCC(C1)C2=O (stereo unspecified),-5,0.66
Cc1cc(CC(=O)N[C@@](C)(CC(C)C)c2cccc(Br)c2)no1,2,-0.19
COc1ccccc1N(C)CC(=O)Nc1nc(C)c(C)s1,3,-0.58
Cc1cccc(-c2noc(CS(=O)(=O)c3ccc(Cl)s3)n2)c1,-11,0.95
CN(C)c1cnc(C(=O)N2CCCC[C@H]2c2cnn(C)c2)cn1,0,0.07
Cc1cc(S(=O)(=O)N[C@H](c2cccnc2)C2CC2)c(C)o1,-4,0.43
CC1(C)C[C@H](N)CN(C(=O)OC(C)(C)C)C1,-6,0.58
O=C(N[C@@H](Cc1ccncc1)C1CC(O)C1)c1cnn(Cc2ccccc2)c1 (stereo partly specified),-21,2.11
COc1c(C)cc(S(=O)(=O)N[C@H]2CCOC[C@@H]2OC)c(C)c1C,-13,2.38
O=C(c1cccc(Br)c1)N1CCN(c2ncc(F)cn2)C(=O)C1,12,-1.52
O=C1NC(c2ccc(-c3ccc(Cl)cc3Cl)o2)C(C(=O)c2ccc(F)cc2)C(O)(C(F)(F)F)N1 (stereo unspecified),-9,1.67
O=C(c1cc(O)ncn1)N1CCN(Cc2ccccc2)CC1,-14,2.42
O=C(NCc1ccc2c(c1)CCN2C(=O)c1ccncc1)c1ccccc1F,-14,1.32
Cc1noc(NC(=O)c2cccc(NS(=O)(=O)c3ccc4c(c3)OCCO4)c2)n1,-4,0.52
C[C@H](Oc1ccc(N(C)C(N)=O)cc1)c1nc(-c2cccs2)no1,-2,0.3
CCCCc1c(C)nc(N)nc1N1CCO[C@@H](CCO)C1,-8,1.08
CC(COc1ccc(F)cc1)NC(C)c1cccnc1 (stereo unspecified),6,-0.83
CC(C)C[C@@H]1N[C@H](C(=O)NCc2ccccc2)Cc2cn(Cc3ccncc3)c3cccc1c23,0,0.06
O=C(Nc1ccccc1F)[C@@H]1Oc2ccccc2NC1=O,-14,1.68
CCOc1cccc(CN[C@@H](C)C2CCN(CC(F)(F)F)CC2)n1,-5,0.79
